± gives the standard deviation of the averaged measurements. In all, about 33,000 sequences were measured (“E-score (dimensionless, -0.5 to 0.5)”: median about -0.046, highest 2% from about 0.36 on). This is one part of the list.
What follows are sequences tested on T1, SpTbr T-box DNA-binding domain (GST fusion) (assay: PBM E-score of 8-mer (E-score (dimensionless, -0.5 to 0.5)); Tbr is Tbrain of the sea star Patiria miniata (Pm) or the sea urchin Strongylocentrotus purpuratus (Sp); higher = stronger binding preference; most listed sequences are background and not binding sites). Conditions: the construct has about 5 more residues each side.
T1 sequence: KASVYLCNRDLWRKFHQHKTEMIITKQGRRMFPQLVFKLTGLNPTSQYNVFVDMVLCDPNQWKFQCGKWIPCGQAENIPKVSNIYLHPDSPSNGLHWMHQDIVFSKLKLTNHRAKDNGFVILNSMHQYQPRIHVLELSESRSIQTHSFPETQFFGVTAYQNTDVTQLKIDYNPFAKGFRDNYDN
Description: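 Universal protein-binding microarray (Agilent AMADID 016060, 60-bp probes with a 35-bp variable region) incubated with 200 nM GST-fused Strongylocentrotus purpuratus Tbr T-box DNA-binding domain (residues 362-554) in PBS pH 7.5. Scored for every ungapped 8-mer (given with its reverse complement) as E-score (range -0.5 to 0.5; >0.45 counts as bound) and Z-score of median probe intensity. Two replicate arrays (datasets 1 and 2).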
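Note: protein at 200 nM in PBS on universal double-stranded arrays.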

Sequence	PBM E-score of 8-mer
CCCATTTC	-0.0689 ± 0.014
GTGCGCTA	-0.0713 ± 0.066
AAATAGCT	-0.162 ± 0.013
AAACGACT	0.113 ± 0.016
CTATCATA	-0.0311 ± 0.033
CAGCATCA	-0.204 ± 0.075
GCCATTTA	-0.029 ± 0.046
TATTTTGA	-0.0718 ± 0.011
CAAAGGCA	-0.134 ± 0.053
TCGTCCAA	-0.155 ± 0.016
ATGGGAAT	-0.095 ± 0.045
GCATGCCA	-0.00391 ± 0.16
ACTATACT	0.119 ± 0.0073
TTCCCCAA	-0.0683 ± 0.032
CAAGTTAA	-0.113 ± 0.091
CGGTACCC	-0.0829 ± 0.037
AACTGGCA	0.221 ± 0.012
CCGCATGC	-0.152 ± 0.11
CCCAGCAG	-0.115 ± 0.026
AACTCAAT	-0.284 ± 0.01
AACAATGG	-0.0828 ± 0.031
GCGAATAC	0.228 ± 0.018
TAGACAAA	-0.203 ± 0.012
CCAGGCCA	-0.259 ± 0.049

Sequence	PBM E-score of 8-mer
AATGTTCG	0.0235 ± 0.046
ATCTCTAG	0.0241 ± 0.017
ATACTTTA	-0.168 ± 0.053
CCGTCCCC	-0.155 ± 0.057
CTGCATAC	-0.169 ± 0.0072
AGAGCAGG	-0.135 ± 0.04
TATCGAGA	0.124 ± 0.014
CCCAGGGG	-0.157 ± 0.023
ACAAGACT	-0.0149 ± 0.097
GGTAGCCA	-0.105 ± 0.065
GGTTGCGA	0.266 ± 0.015
CGGGGTTA	-0.11 ± 0.027
AAGTTGCG	0.2806 ± 0.00023
AATGTTGC	0.0243 ± 0.044
ATAGCAAT	-0.0521 ± 0.0064
CCCGCTCC	0.0149 ± 0.04
CAGGCACG	-0.0364 ± 0.02
AGATTGGC	0.0293 ± 0.042
AAGGCCGC	0.048 ± 0.0025
CTTGATTA	0.0354 ± 0.099
CTATATCA	-0.11 ± 0.065
GGTGGACA	-0.0378 ± 0.056
AAATTCGG	-0.272 ± 0.023
ATAGAGTG	0.149 ± 0.022

Sequence	PBM E-score of 8-mer
ACGTTCGA	-0.0834 ± 0.035
AAAATGTA	0.11 ± 0.1
ATGACCAG	-0.0274 ± 0.0032
AGATGAAC	-0.238 ± 0.021
TAGGGAAA	-0.196 ± 0.0025
CTGTGTAA	-0.0574 ± 0.063
AATCATAT	-0.297 ± 0.02
CAGGATAC	-0.172 ± 0.016
CTTTCATA	-0.174 ± 0.21
AAGCCTCC	-0.00958 ± 0.029
GTGACAAC	0.4467 ± 0.0025
GCTAGAGA	0.0436 ± 0.031
AAAATAGG	-0.0106 ± 0.049
CCGGCGCC	0.194 ± 0.018
GAGATGAA	-0.124 ± 0.015
GAAAGACC	-0.0768 ± 0.03
CGACTCTC	-0.164 ± 0.033
ACGGTTCG	0.167 ± 0.032
CCGCCAAA	0.1 ± 0.039
AACTACAC	0.216 ± 0.061
CCACCCAG	-0.212 ± 0.031
TACACAAA	0.00389 ± 0.055
GCTCTTAA	-0.238 ± 0.0033
GGGGTAGA	-0.224 ± 0.021

Sequence	PBM E-score of 8-mer
CCTGTGAA	0.363 ± 0.011
GATAGTCA	0.0911 ± 0.041
GTATGGAA	-0.231 ± 0.034
AATAGCTA	-0.175 ± 0.0024
ATCTATAA	-0.0607 ± 0.029
AAAGCATA	-0.0354 ± 0.0091
GGGCTCCA	-0.332 ± 0.0097
CATATTCC	-0.0387 ± 0.034
CAGGTACA	-0.171 ± 0.016
CCCGGGGC	-0.263 ± 0.021
ATGTACAC	-0.0724 ± 0.02
GAACCATC	5e-06 ± 0.026
CACGCGGA	0.114 ± 0.052
CCCTGACG	-0.0523 ± 0.048
GCGGATAA	-0.0663 ± 0.071
AACTCAGT	-0.245 ± 0.0082
GACCAAAA	-0.133 ± 0.0068
CGGCTCAA	-0.251 ± 0.049
TCACCTCA	0.387 ± 0.0086
TATTGTAA	0.00715 ± 0.023
GGATTCAC	0.159 ± 0.037
ATTGGCTG	-0.162 ± 0.039
